Our source for the survival values is PubChem BioAssay AID463173 (ICCB-Longwood Screening Facility, Harvard Medical School, 2010).

Structures are written as SMILES. Among all 52,000 compounds or so, about 1,700 (3.3%) were called active. Rule as the data show it: active = survival mostly below about 52% (no sharp cut-off); inactive = mostly above about 56%. Some of the results follow.

The assay deals with Wild type. The assay is described as follows: growth inhibition of S. aureus wild type versus tarO mutant, primary screen, teichoic acid synthesis inhibitors, RN4220, OD600 (AID 463173). The settings on record: S. aureus RN4220 wild type/DeltatarO growth, OD600, 18 h, hits give low values, screened at 18.75 µg/mL (by protocol).
For the compound `COc1ccc(OC)c(CC2C(=O)Nc3ccc(Br)cc32)c1` (stereo not given), the survival was inactive: 84%.

On to `COC(=O)c1cc2sccc2n1Cc1ccc(F)cc1Cl`, for which the survival was inactive: 46%.

`CCOC(=O)c1c(C)oc2ccc(N(C(C)=O)S(=O)(=O)c3c(C)cc(C)cc3C)cc12`: the survival was inactive: 131%.

For the compound `O=C(COc1ccc(F)cc1)Nc1ccc2nc(SCCOc3ccccc3)sc2c1`, the survival was inactive: 88%.

As for `N#Cc1ccc(NC(=O)C2Cc3ccccc3CN2S(=O)(=O)c2ccc(F)cc2)cc1` (stereo not given), the survival is inactive: 64%.

As for `CCCCNC(=O)C1CCC(Cn2c(=O)c3sccc3n(CC(=O)Nc3ccccc3)c2=O)CC1` (stereo not given), the survival was inactive: 110%.

For `Cc1nc2cc(NC(=O)Nc3ccccc3Cl)ccc2n1C`, the survival was inactive: 109%.

In the case of `COCCn1c(=N)c(C(=O)NC2CCCC2)cc2c(=O)n3cc(C)ccc3nc21`, the survival was inactive: 88%.

Take `O=C(Nc1ccccc1C(=O)OCc1cc(=O)n2ccsc2n1)c1ccccc1Cl`: the survival was inactive: 75%.

As to `O=C(NC1CCN(Cc2ccccc2)CC1)c1ccc(Cn2c(=O)c3ccccc3n(Cc3cccc(F)c3)c2=O)cc1`, the survival is inactive: 94%.

With `CCN(CC)CCNC(=O)c1cn(CC)c2ccc(S(=O)(=O)N3CCc4ccccc4C3)cc2c1=O`, the survival is inactive: 82%.

Turning to `CCC(=O)N1CCc2cc(Br)cc(S(=O)(=O)N3CCN(c4cc(C)ccc4C)CC3)c21`, the survival is inactive: 66%.

Regarding `CCOC(=O)c1cc(-c2ccc(C)cc2)n(CCC(=O)NCCc2ccc(C)cc2)c1C`, the survival is inactive: 98%.

With `Cc1cccc(C)c1NC(=O)CCC(=O)N1Cc2ccccc2Oc2ncccc21`, the survival was inactive: 69%.

With `CCC(=O)N1CCc2cc(Br)cc(S(=O)(=O)CCC(=O)Nc3ccc(Cl)cc3)c21`, the survival was inactive: 77%.

In the case of `COc1cc(-c2cc3n(C)c(C)c(CCC(=O)NC4CCCCC4)c(=O)n3n2)cc(OC)c1OC`, the survival is inactive: 90%.

For `CC(=O)NC1(c2ccccc2F)CCN(CC(=O)N2CCN(C(=O)c3ccco3)CC2)CC1`, the survival was inactive: 103%.

With `O=C(Cc1ccc(NC(=O)N2CCSc3ncccc32)cc1)NCc1cccc(Cl)c1`, the survival was inactive: 65%.

On to `Cc1ccc(NC(=O)C2CCCN2S(=O)(=O)c2cccc3cccnc23)c(C)c1` (stereo not given), for which the survival was inactive: 81%.

In the case of `O=C(Nc1cccc(OCc2cc(=O)n3ccccc3n2)c1)Nc1cccc(C(F)(F)F)c1`, the survival was active: -6%.

Take `Cc1ccc2c(=O)c(C(=O)c3ccc(Cl)cc3)cn(CC(=O)Nc3ccc4c(c3)OCCO4)c2n1`: the survival is inactive: 76%.

`Cc1cccc(C(=O)NCc2nc3ccccc3n2Cc2ccccc2Cl)c1`: the survival was inactive: 107%.

For `CCOc1ccccc1CNC(=O)c1oc2c(c1C)-c1nn(Cc3cccc(Cl)c3)cc1CC2`, the survival was inactive: 82%.

Consider `CCOC(=O)c1c(C)n(-c2ccccc2)c2ccc(OC(=O)c3c(F)cccc3F)cc12`, for which the survival was inactive: 80%.

Regarding `COCCNC(=O)CN1CCC(NC(=O)Nc2ccc(C(F)(F)F)cc2)CC1`, the survival was inactive: 102%.

Consider `CCOc1ccc(Cn2c(CNS(=O)(=O)c3ccc(C(C)(C)C)cc3)nc3cccnc32)cc1`, for which the survival is inactive: 80%.

Take `COc1cccc(NC(=O)Cn2c(=O)n(Cc3ccc(C(=O)NCc4ccc(C)cc4)cc3)c(=O)c3ccccc32)c1`: the survival was inactive: 71%.

As to `COc1ccc(Cl)cc1C(=O)NCCS(=O)(=O)N1CCN(c2ccccc2OC)CC1`, the survival is inactive: 71%.

As to `CCCC(C)C(=O)Nc1nnc(C(F)(F)F)s1` (stereo not given), the survival is inactive: 100%.

`CCOc1ccc(CNC(=O)C2=Cc3cccc(OC)c3OC2)cc1`: the survival was inactive: 72%.

As for `COc1ccc(CCNC(=O)C2c3ccccc3C(=O)N2Cc2ccccc2)cc1OC` (stereo not given), the survival was inactive: 72%.

Take `Cc1ccccc1OCC(=O)Nc1ccc2nc(SCC(=O)N3CCOCC3)sc2c1`: the survival is inactive: 87%.

Consider `O=C(CN1C(=O)C2(SCC(=O)N2c2ccc(F)c(F)c2)c2ccccc21)Nc1cccc(Cl)c1` (stereo not given), for which the survival is inactive: 68%.

On to `CCOc1ccc(NC(=O)CCNS(=O)(=O)c2cccs2)cc1`, for which the survival is inactive: 59%.

As to `Cn1c(SCC#N)nc2c(c1=O)C1(CCCCC1)Cc1ccccc1-2`, the survival is inactive: 113%.

Take `Cc1ccc(-c2nn(CCC(N)=O)c(=O)c3ccccc23)cc1`: the survival is inactive: 65%.

Turning to `COc1c(C)cc(NS(=O)(=O)c2ccc3c(c2)OCCO3)cc1C`, the survival is inactive: 85%.

With `COc1ccc2c(C)c(CCC(=O)NCc3ccccc3Cl)c(=O)oc2c1C`, the survival was inactive: 84%.

For `O=C(CCC1CCCCC1)Nc1nccs1`, the survival is inactive: 114%.

Turning to `COc1ccc(CNC(=O)C2CCN(C(=O)N3CCOc4ccc(Cl)cc43)CC2)cc1`, the survival was inactive: 110%.

As to `Cc1cc(Nc2ccccc2O)nc(C)n1`, the survival was inactive: 84%.

As for `COc1ccc(NC(=O)CCCN2C(=O)CCn3nc(-c4cn(C)c5ccccc45)cc32)cc1`, the survival is inactive: 90%.

As to `Cc1ccc(C)c(S(=O)(=O)n2nc(C)c(S(=O)(=O)N3CCCCCC3)c2C)c1`, the survival was inactive: 63%.

On to `Cc1cccc(C)c1-n1ncc(C(=O)NCCN2CCN(C)CC2)c1C1CCN(C(=O)OC(C)(C)C)CC1`, for which the survival was active: 0%.

Turning to `CCOC(=O)c1cnc2ccc(OC)cc2c1Nc1cccc(C(C)=O)c1`, the survival was active: 2%.

On to `CCOc1ccc(C(=O)NCc2nc(-c3ccc(Cl)cc3)no2)cc1OCC`, for which the survival is inactive: 90%.

On to `CCN(Cc1ccccc1)S(=O)(=O)c1ccc(F)c(C(=O)Nc2cc(C)ccc2OC)c1`, for which the survival was inactive: 120%.

On to `Cc1cccc(NC(=O)C2CCN(S(=O)(=O)c3c(C)noc3/C=C/c3ccco3)CC2)c1`, for which the survival is inactive: 69%.

Turning to `C=CCn1c(N)c(-c2nc3ccccc3[nH]2)sc1=S`, the survival was inactive: 120%.

In the case of `O=C(NC1CC1)C1C2C=CC3(O2)C1C(=O)N(Cc1ccccc1)C3C(=O)NC1CCCC1` (stereo not given), the survival is inactive: 103%.

On to `Fc1ccc(CNc2nc3c(-c4ccc(F)cc4)nnn3c3ccccc23)cc1`, for which the survival is inactive: 84%.

As for `COc1ccc(N(C)C(C)=O)cc1`, the survival was inactive: 89%.

Regarding `COc1cccc(/C=C/c2nc(C#N)c(N(C)Cc3ccccc3)o2)c1`, the survival was inactive: 79%.

Consider `COc1ccc(-c2noc(CSCC(=O)Nc3ccc(C)cc3Br)n2)cc1OC`, for which the survival was inactive: 72%.

In the case of `COCCCNC(=O)CN1C(=O)c2c(c3ccccc3n2C)C1c1ccc(OC)cc1` (stereo not given), the survival is inactive: 84%.

Turning to `CCCCSc1ncnc2c1sc1nc(N3CCOCC3)c3c(c12)CCCC3`, the survival is inactive: 73%.

Turning to `COc1cc(C(=O)NCc2ccc3c(c2)CCN3C(=O)c2ccncc2)cc(OC)c1OC`, the survival was inactive: 73%.

With `Cc1ccc(NC(=O)NCCc2c(C)nn(C)c2C)c(Cl)c1`, the survival is inactive: 71%.

As for `CC1=C(C(=O)Nc2ccc(C)cc2)C(c2ccccc2Cl)n2nnnc2N1` (stereo not given), the survival is inactive: 146%.

Consider `CCOc1ccc(CNC(=O)COc2cc(=O)n(C)c3ccccc23)cc1`, for which the survival was inactive: 71%.

Turning to `CC(C)(C)c1cn2ccc3ccccc3c2n1`, the survival is inactive: 113%.

For the compound `Cc1ccc(NC(=O)c2cc(-c3ccc4c(c3)OCO4)on2)cc1`, the survival was inactive: 105%.

Consider `Cc1cccc2c1-c1sc(C(=O)NCc3ccccc3Cl)cc1CO2`, for which the survival was inactive: 92%.

For the compound `CCCN1CCN(CCCNC(=O)Cn2nc(C)n3c(cc4cc(F)ccc43)c2=O)CC1`, the survival was inactive: 80%.

As to `COc1cc(NC(=O)c2ccc(C(=O)Nc3cc(OC)c(Cl)cc3OC)cc2)c(OC)cc1Cl`, the survival is inactive: 65%.

Take `CCN(CC)C(=O)COc1ccc2ccc(=O)oc2c1`: the survival was inactive: 110%.

With `CCC(=O)N1CCc2cc(Br)cc(S(=O)(=O)CCC(=O)NCc3ccccc3)c21`, the survival was inactive: 85%.

For the compound `COc1cccc(NC(=O)c2cc(CN3CCOCC3)on2)c1`, the survival is inactive: 79%.

Turning to `CSc1cccc(NC(=O)CN(C)S(=O)(=O)c2ccc3c(c2)n(C)c(=O)c(=O)n3C)c1`, the survival was inactive: 71%.

Turning to `Cc1nn2c(=O)cc(COC(=O)c3ccc(C(C)(C)C)cc3)nc2s1`, the survival is inactive: 83%.

Take `COc1ccccc1CNC(=O)c1c2c(nc3ccccc13)C(=O)N(C1CCCCC1)C2`: the survival was inactive: 124%.

Turning to `O=c1ccc2cc(S(=O)(=O)N3CCCC3)ccc2[nH]1`, the survival is inactive: 75%.

Take `Cc1cccc(C(=O)N2CCC(C)CC2)c1`: the survival was inactive: 104%.

As to `O=C(NCCN1CCOCC1)N1CCNC1=O`, the survival was inactive: 110%.

As for `N#CC(C#N)=C1c2ccccc2-c2c1nc1ccccc1[n+]2[O-]`, the survival is inactive: 117%.

Consider `O=C(Nc1c(C(=O)N2CCN(c3ccc(F)cc3)CC2)oc2ccccc12)c1ccco1`, for which the survival is inactive: 88%.

On to `COc1ccc(NC(=O)c2c(C)oc3ccc(O)c(CN4CCN(C)CC4)c23)cc1Cl`, for which the survival is inactive: 88%.

Take `Cc1ccc(-c2nnc(Nc3ccc(C(N)=O)cc3)c3ccccc23)cc1S(=O)(=O)N1CCCCC1`: the survival is inactive: 139%.

With `COc1cccc(N2CCN(S(=O)(=O)c3ccc(-c4cnc(C5CC5)o4)cc3)CC2)c1`, the survival is inactive: 85%.

With `CCOC(=O)C1CCCN(CCC(=O)Nc2ccc(OC)cc2OC)C1` (stereo not given), the survival was inactive: 136%.

Regarding `COc1ccc(CCNC(=O)c2ccc(CS(=O)(=O)c3ccc(C)cc3)o2)cc1OC`, the survival is inactive: 80%.

As to `CCCc1nn2c(=O)cc(COC(=O)c3ccc(NC(=O)c4cccs4)cc3)nc2s1`, the survival is inactive: 88%.

For `CCc1ccc(NC(=O)CSC2=Nc3ccccc3C3=NC(CCC(=O)NCc4cccs4)C(=O)N23)cc1` (stereo not given), the survival was inactive: 45%.

For the compound `O=C(CSc1nc2ccccc2n1Cc1ccc(F)c(Cl)c1)N1CCN(c2ccc(F)cc2)CC1`, the survival was inactive: 68%.

On to `Cc1cccc(-n2ccnc2SCC(=O)Nc2ccccc2C(F)(F)F)c1`, for which the survival was inactive: 66%.

Turning to `COc1ccc(CNC(=O)CCc2c(C)nc3c(c2C)c(=O)n(C)c(=O)n3C)cc1`, the survival was inactive: 120%.

In the case of `CCn1cc(C(=O)NCCc2ccccc2)c(=O)c2cc(S(=O)(=O)N3CCOCC3)ccc21`, the survival was inactive: 85%.

Turning to `O=C(/C=C\c1ccco1)Oc1cccc2cccnc12`, the survival was active: 1%.

As to `O=C(NC1CCCC1)c1cc2ccccc2oc1=O`, the survival is inactive: 114%.

As for `O=C(NC1CCCCCC1)C1CCCO1` (stereo not given), the survival is inactive: 95%.
